# Some of the results follow.
# System: T1, C. trachomatis L2/434/Bu expressing GFP (CTL2-GFP)
# T1 construct: L2/434/Bu GFP intracellular growth in HeLa cells
# Design: species or system HeLa; C. trachomatis total inclusion area by high-content imaging, normalised to DMSO
# Details: total inclusion area; 28.5 h, 10 µM; inhibitor
# Outline: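 Imaging read-out: GFP inclusions and Hoechst nuclei captured by high-content imaging after fixation. Inclusion area/number = chlamydial growth; nuclei count = host cell viability. MIC calculated per earlier method.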
row,Compound,% of control remaining
1,Cc1ccc(C(=O)Nc2ccccc2C(=O)N2CCN(Cc3ccccc3)CC2)cc1 [CBK263560],92.7329
2,CN1CC(c2ccccc2)CC2(CCN(CCCn3cnnn3)CC2)C1 (centres unmarked) [CBK306522],89.2913
3,C=C(C)c1cccc(C(C)(C)NC(=O)N2CCC(C(=O)NC(c3ccc(OC)nc3)c3ccccc3C)CC2)c1 (centres unmarked) [CBK074871],96.3816
4,COCc1cccc(-c2nccnc2OC(c2ccccc2)c2ccccc2)c1 [CBK106960],82.8526
5,CCn1nnc2c(=O)n(CC(=O)Nc3ccccc3)cnc21 [CBK287828],87.0996
6,COC(C)(C)C(=O)N1CCCC(c2ccc(Cc3ccc(Cl)cc3)cn2)C1 (centres unmarked) [CBK285846],107.409
7,O=[N+]([O-])c1ccc(CN2CCN(c3nccnc3OCc3ccc(Cl)c(Cl)c3)CC2)cc1 [CBK083076T],91.3498
8,Cc1nc(SCC(=O)O)nc(O)c1Oc1ccccc1 [CBK263621],87.8427
9,O=C(CCc1ccccc1)NC(=S)Nc1ccc(-c2nc3ccccc3[nH]2)cc1 [CBK267472],80.8665
10,CCOC(=O)c1sc(NS(=O)(=O)c2cccc(Cl)c2C)nc1-c1ccccc1 [CBK000749],104.62
11,O=C(CS(=O)(=O)Cc1ccccc1)Nc1ccc(S(=O)(=O)N2CCOCC2)cc1 [CBK266658],103.972
12,CN1CCN(C(=O)c2ccc(-c3cncc(-c4cc5ccccc5[nH]4)n3)c(F)c2)CC1 [CBK144906],81.8867
13,Cc1cccc(CN(CC(C)(C)CN)C(=O)Nc2ccc(-c3ccccc3)cc2)n1 [CBK002453C],68.9284
14,CCc1nn(CC(=O)N2CCCC2)c(=O)c2cc3sccc3n12 [CBK284028],112.933
15,O=C(Nc1ccc(F)c(F)c1)NC1CCC2CN(CCOc3ccccc3)CC2C1 (centres unmarked) [CBK083365T],0.1534
16,Cc1ccc(NS(=O)(=O)c2cc(C(=O)O)ccc2Cl)cc1S(=O)(=O)N1CCOCC1 [CBK296954],83.1211
17,CC(C)N(Cc1nc(-c2ccc(Cl)cc2)no1)S(=O)(=O)c1cccc([N+](=O)[O-])c1 [CBK267050],127.48
18,Cc1cccn2cc(CCNC(=O)N3CCOCC3C3CC3)nc12 (centres unmarked) [CBK304033],97.5915
19,COC(=O)CCc1sc(NC(=O)CSCC(=O)O)nc1-c1ccc(OC)cc1 [CBK296116],120.716
20,O=C(c1cccc(F)c1)N1CCCC1c1n[nH]cc1-c1ccncc1 (centres unmarked) [CBK283437],87.0229
21,O=S(=O)(c1ccccc1)n1cc2c3c(cccc31)CN(CCO)C2 [CBK156333T],92.3164
22,CN(C)CCn1ccnc1C1CCCN(C(=O)Cc2cccc(Cl)c2)C1 (centres unmarked) [CBK307272],76.1458
23,COc1ccc(-c2cc(C(=O)Nc3ccc4ncccc4c3)cnc2-c2ccccc2)cc1 [CBK036623],99.5423
24,Cn1c(=O)c2c(nc(CN3CCC(Cc4ccccc4)CC3)n2CCN2CCOCC2)n(C)c1=O [CBK269380],85.4682
25,CCCCOc1ccc(NC(=O)NCCC2=CCCCC2)cc1 [CBK043751],37.1126
26,Cc1cccn2cc(CC(=O)NCCNC(=O)OC(C)(C)C)nc12 [CBK306122],43.9484

row,Compound,% of control remaining
1,COCCc1noc(CC2CCN(c3nc(C#N)c(Cl)s3)CC2)n1 [CBK304205],94.1822
2,CC1CCN(CCOCC(O)CNS(=O)(=O)O)CC1 (centres unmarked) [CBK261454N],86.6748
3,CC(=O)Nc1ccc2n(c1=O)C[C@H]1C[C@@H]2CN(C(=O)COc2ccccc2)C1 [CBK289074],108.06
4,Cn1c(N2CC[C@H](O)C2)nc2cc(C(=O)NC3CCNCC3)ccc21 [CBK306873],12.1913
5,COc1ccc(-c2nc3ccc(OC)cc3[nH]2)cc1 [CBK000126],14.7693
6,O=S(=O)(Nc1nc2c(s1)CCCC2)c1ccc(Br)cc1 [CBK097787],83.6387
7,Cc1nc(C2CCCN(C(=O)c3ccncc3)C2)c2sccn12 (centres unmarked) [CBK285199],103.297
8,O=C(CN1CCC(c2nc3ccccc3[nH]2)CC1)Nc1ccc(F)cc1 [CBK287720],89.5091
9,O=[N+]([O-])c1ccccc1NCCNS(=O)(=O)c1ccccc1 [CBK263552],94.3036
10,COCCNc1nc(-c2cccc(F)c2)cn2ccnc12 [CBK066465],153.401
11,COc1ccccc1-c1cnc2[nH]c(=O)n(CC3CCOCC3)c2n1 [CBK064286],81.8262
12,Cc1ccc([N+](=O)[O-])cc1NC(=O)C1Cc2ccccc2CN1C(=O)OCc1ccccc1 (centres unmarked) [CBK262463],65.4149
13,COc1cnc(-c2ccccc2OC)c(NC(C)=O)n1 [CBK145259],94.3033
14,CN(C)C(=O)N1CCN(C(=O)c2cn(Cc3cccc(S(C)(=O)=O)c3)nn2)CC1 [CBK160969T],84.3576
15,O=C(CN1CCN(c2cc(-c3ccsc3)ncn2)CC1)N1CCCC1 [CBK091074],117.287
16,Cn1c(CCNC(=O)C2CCCCC2)nc2cc([N+](=O)[O-])ccc21 [CBK268440],97.9303
17,COc1ccc(-c2cnc(NS(C)(=O)=O)c(C(=O)Nc3cc(C)nn3C)c2)cc1 [CBK076528],90.2477
18,CC(C)[C@@H](CO)Nc1nc(-c2ccccc2Cl)cn2ccnc12 [CBK037368],101.071
19,COc1ccc(C(=O)N[C@H]2C[C@H]3C(=O)Nc4ccccc4C(=O)N3C2)cc1 [CBK289355],114.274
20,Nc1ccc(-c2nc3cc(C(=O)c4ccc5[nH]c(-c6ccc(N)cc6)nc5c4)ccc3[nH]2)cc1 [CBK262848],82.7709
21,O=S(=O)(NC1CCN(Cc2ccccc2)CC1)c1ccc(-c2ccon2)s1 [CBK062038],95.3253
22,O=C(CSc1nnc(-c2ccncc2)[nH]1)c1ccc(O)c(O)c1 [CBK264346],109.19
23,O=C(O)c1ccc2c(c1)C(=O)N(c1cccnc1)C2=O [CBK287173],104.797
24,O=C(Nc1ccc(OC(F)(F)F)cc1)Nc1cc(-c2cccs2)n[nH]1 [CBK020563],9.722
25,CCOc1cc(NC2CCN(C(=O)C3CCCCC3(C)C)CC2)ncn1 (centres unmarked) [CBK305505],32.8131
26,Cc1cc(-c2cn3cc(C(=O)N4CCCCC4)nc3c(=O)n2C)c(C)o1 [CBK306890],50.8918

row,Compound,% of control remaining
1,COc1ccc(NC(=O)C(C)Sc2nc(N)cc(O)n2)cc1 (centres unmarked) [CBK265699],82.8747
2,COc1ccc(C(=O)N2CCC3(CCCN(CCN4C(=O)c5ccccc5C4=O)C3)C2)cc1OC (centres unmarked) [CBK132862],51.5437
3,Cc1[nH]c(=O)[nH]c(=O)c1CC(=O)NCC1CCN(c2ccccc2F)C1 (centres unmarked) [CBK304325],30.7799
4,COc1ccccc1CC(C)NC(=O)CC1CCN(c2nc(C)cc(C)n2)CC1 (centres unmarked) [CBK285956],128.126
5,Cc1sc(NC(=S)NC(=O)COc2ccc(Br)cc2Cl)c(C(N)=O)c1C [CBK266127],120.709
6,O=c1cc(CO)oc(CN2CCCCCC2)c1O [CBK288363],85.4686
7,O=C(N[C@H]1C[C@@H]2C(=O)N[C@H]3CCN(C(=O)Cc4cccs4)[C@@H]3C(=O)N2C1)C1CCC1 [CBK289269],90.497
8,C[N+](C)(C)CCC(=O)CCC(=O)O [CBK262012I],111.339
9,Cc1c(C(=O)N(C)Cc2csc(Br)c2)nnn1C1CCNCC1 [CBK304491],104.841
10,O=C(CS(=O)(=O)c1ccccc1)N1CCN2C(=O)N(C3CCCCC3)C(=O)[C@H]2C1 [CBK289580],88.0592
11,NS(=O)(=O)c1ccc(NC(=O)CC2SC(=O)NC2=O)cc1 (centres unmarked) [CBK263855],74.245
12,CCCC/C=C/c1cnc2[nH]c(=O)n(Cc3cccs3)c2n1 [CBK064373],113.925
13,COc1nccnc1N1CCN(CCOc2ccccc2)CC1 [CBK084230],85.5767
14,O=C(N/N=C/c1cccnc1)c1cccc(F)c1 [CBK261689],95.0695
15,Nc1nc(SCC(=O)NCc2ccc3c(c2)OCO3)n[nH]1 [CBK266580],114.234
16,CN(C)C(=O)c1ccc(-c2ccc(COC3CCN(C(=O)Cc4ccc(F)cc4)CC3)c(S(C)(=O)=O)c2)cc1 [CBK155963],56.2883
17,COc1nccnc1OC1CCN(Cc2ccc(Cl)cc2)CC1 [CBK084240],85.4721
18,c1cncc(COc2cc(N3CCCC3)ncn2)c1 [CBK115894],116.251
19,OCC1CCCN1c1cncc(-c2ccc(F)cc2F)n1 (centres unmarked) [CBK065891],96.891
20,CCCOC(=O)c1c(NC(=O)c2cc(-c3ccccc3)nc3ccccc23)sc2c1CCC(C)C2 (centres unmarked) [CBK262647],104.601
21,CCN1C(=O)N(CC)C2C1NC(=O)N2CCCC(=O)O (centres unmarked) [CBK287131],107.092
22,O=C(c1ccco1)N1CCN(c2ccc(-c3cccc(Cl)c3Cl)cn2)CC1 [CBK037737],97.8459
23,COc1ccc(OC)c(N(CC(=O)N2CCN(C)CC2)S(=O)(=O)c2ccccc2)c1 [CBK264131],121.887
24,O=C(NC1CC1)C1(Cc2ccccc2-c2cccnc2)CCOCC1 [CBK285222],79.07
25,CCN1CCCC1CNS(=O)(=O)c1cc(C(N)=O)ccc1OC (centres unmarked) [CBK267815],91.8933
